For this assay, the system named is primary human hepatic stellate cells (donor 1). The experiment in a line: scaled lipid accumulation score (0 = DMSO-like, 1 = nortriptyline-like); higher = stronger HSC inactivation (lipid re-accumulation), active = hit call of the paper. The following applies: 48 h.
Setting [1] is: library stock concentration: 1 mM.
The mark [2] stands for this setting: library stock concentration: 10 mM.
The mark [3] stands for this setting: library stock concentration: 3.33 mM.

“And” between values parts separate entries of the source, which are not always exact repeats. Equal entries are not always repeated. Structures can show the parent of a compound that is named as a salt. Among all 5,800 compounds or so, about 620 (11%) showed activity.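 The calls were made as follows: active = score above a cut-off or among the top three wells of a plate; in these data no inactive exceeds 0.85.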 This is a selection; strong and weak results do not stand in their true shares.

With `CCCCC/C=C\C/C=C\C/C=C\C/C=C\CCCC(=O)Nc1cccc(O)c1` [N-(3-hydroxyphenyl)-Arachidonoyl amide], the “scaled lipid accumulation score” value under setting [1] was inactive: 0.053.

As for `C[C@]12CC[C@H]3[C@@H](CCC4=CC(=O)CC[C@@H]43)[C@@H]1CC[C@@H]2O` [19-Nortestosterone], the “scaled lipid accumulation score” value under setting [2] was inactive: 0.291.

Regarding `C[C@]12CC[C@H]3[C@@H](CCC4=CC(=O)CC[C@@H]43)[C@@H]1CC[C@@H]2O` [Nandrolone], the “scaled lipid accumulation score” value is inactive: 0.209.

Take `CC(C)[C@@H]1NC(=O)[C@H](C)OC(=O)[C@@H](C(C)C)NC(=O)[C@@H](C(C)C)OC(=O)[C@H](C(C)C)NC(=O)[C@H](C)OC(=O)[C@@H](C(C)C)NC(=O)[C@@H](C(C)C)OC(=O)[C@H](C(C)C)NC(=O)[C@H](C)OC(=O)[C@@H](C(C)C)NC(=O)[C@@H](C(C)C)OC1=O` [Valinomycin]: where the note is “library stock concentration: 4.5 mM”, the “scaled lipid accumulation score” value is inactive: 0.447.

Turning to `N#Cc1ccc(N2CCN(C(=O)COc3ccc4[nH]cc(CCN)c4c3)CC2)cc1` [Donitriptan hydrochloride], under setting [2], the “scaled lipid accumulation score” value is inactive: ≤ 0.

On to `CN(C(=O)Cc1ccc(Cl)c(Cl)c1)[C@H](CN1CCCC1)c1ccccc1.Cl` [ICI-199,441 hydrochloride], for which the “scaled lipid accumulation score” value under setting [2] is active: 1.58.

On to `O=[N+]([O-])c1ccc2nc(N3CCNCC3)ccc2c1` [Quipazine, 6-nitro-, maleate], for which, under setting [2], the “scaled lipid accumulation score” value was inactive: 0.416.

For `CN1Cc2ccccc2[C@@H]2c3cccc4[nH]cc(c34)C[C@H]21`, the “scaled lipid accumulation score” value under setting [2] is inactive: 0.621.

Turning to `CC[C@H]1CN2CC[C@H]1C[C@@H]2[C@@H](O)c1ccnc2ccc(OC)cc12` [Hydroquinidine], the “scaled lipid accumulation score” value under setting [2] was inactive: ≤ 0.

`c1ccc2c(N3CCNCC3)cccc2c1` [1-(1-Naphthyl)piperazine hydrochloride]: under setting [2], the “scaled lipid accumulation score” value is inactive: 0.407.

On to `COc1ccc(CN2CCNCC2)c(OC)c1OC` [Trimetazidine dihydrochloride], for which the “scaled lipid accumulation score” value is inactive: 0.013.

Consider `COc1ccc2c(c1)c(CCN1CCOCC1)c(C)n2C(=O)c1cccc(Cl)c1Cl`, for which, under setting [2], the “scaled lipid accumulation score” value is inactive: 0.325.

Regarding `O=C(N[C@H]1CN2CCC1CC2)c1cc2ccoc2cn1`, the “scaled lipid accumulation score” value under setting [2] was inactive: ≤ -0.055.

In the case of `CN1C2CCC1CC(OC(c1ccc(F)cc1)c1ccc(F)cc1)C2.Cl` (stereo unspecified), the “scaled lipid accumulation score” value under setting [2] was active: 1.29.

With `C=C(C)[C@H]1CN[C@H](C(=O)O)[C@H]1CC(=O)O` [(-)-(.alpha.)-Kainic Acid (hydrate)], under setting [1], the “scaled lipid accumulation score” value is inactive: ≤ 0.

`C=C(C)[C@H]1CN[C@H](C(=O)O)[C@H]1CC(=O)O` [Kainic acid]: under setting [2], the “scaled lipid accumulation score” value was inactive: ≤ -0.055 and inactive: 0.031 and inactive: ≤ -0.009.

For `c1ccc(CCCCN2CCC(c3ccccc3)CC2)cc1` [4-PPBP maleate], under setting [2], the “scaled lipid accumulation score” value is inactive: 0.63.

With `Cc1cc(O)ccc1Cl` [Chlorocresol], the “scaled lipid accumulation score” value is inactive: ≤ 0 under setting [3]; inactive: ≤ -0.001 and inactive: ≤ 0 under setting [2]; inactive: ≤ -0.001 (library stock concentration: 14 mM).

As to `C[C@H](N)Cc1cnc[nH]1` [(S)-(+)-a-Methylhistamine dihydrobromide], the “scaled lipid accumulation score” value under setting [2] was inactive: 0.003.

On to `CN(C)C(=O)C(CCN1CCC(O)(c2ccc(Cl)cc2)CC1)(c1ccccc1)c1ccccc1.Cl`, for which the “scaled lipid accumulation score” value (library stock concentration: 9.7 mM) is active: 1.02.

Take `CCCCC/C=C\C/C=C\C/C=C\C/C=C\CCCC(=O)N[C@@H](C)CO` [S-1 Methanandamide]: under setting [1], the “scaled lipid accumulation score” value is inactive: ≤ 0.

Take `O=C(O)Cc1cccnc1C(=O)O` [Homoquinolinic acid]: the “scaled lipid accumulation score” value under setting [2] was inactive: 0.004.

`CN[C@@H]1C[C@@H](c2ccc(Cl)c(Cl)c2)c2ccccc21` [Indatraline hydrochloride]: the “scaled lipid accumulation score” value under setting [2] is inactive: 0.091 and inactive: 0.211.

On to `O=[N+]([O-])c1cc(O)c(O)c([N+](=O)[O-])c1`, for which the “scaled lipid accumulation score” value under setting [2] is inactive: ≤ 0.

As to `O=[N+]([O-])c1cc(O)c(O)c([N+](=O)[O-])c1` [3,5-Dinitrocatechol], the “scaled lipid accumulation score” value under setting [2] is inactive: ≤ -0.07.

Take `O=C1CN=C(c2ccccc2Cl)c2cc([N+](=O)[O-])ccc2N1` [Clonazepam]: the “scaled lipid accumulation score” value (library stock concentration: 6.3 mM) was inactive: ≤ 0.

Take `NCCc1ccc(S(=O)(=O)F)cc1` [4-(2-Aminoethyl)benzenesulfonyl fluoride hydrochloride]: the “scaled lipid accumulation score” value under setting [2] was inactive: 0.06.

In the case of `NCCc1ccc(S(=O)(=O)F)cc1`, the “scaled lipid accumulation score” value by setting is: under setting [3], inactive: ≤ -0.001; under setting [2], inactive: 0.025.

For `C[C@H]1O[C@H](O[C@H]2[C@H](O)[C@@H](O)[C@@H](O)[C@H](O)[C@@H]2O)[C@@H](N)C[C@@H]1NC(=N)C(=O)O` [Kasugamycin hydrochloride], the “scaled lipid accumulation score” value under setting [2] is inactive: 0.133.

On to `C[C@H]1O[C@H](O[C@H]2[C@H](O)[C@@H](O)[C@@H](O)[C@H](O)[C@@H]2O)[C@@H](N)C[C@@H]1NC(=N)C(=O)O` [Kasugamycin], for which, for the setting “library stock concentration: 5.3 mM”, the “scaled lipid accumulation score” value was inactive: ≤ -0.006.

Regarding `C[C@H](N)CN1CCc2ccc(Br)cc21` [VER-3323 hemifumarate salt], the “scaled lipid accumulation score” value under setting [2] is inactive: 0.817.

Consider `Nc1nc(N)nc(NC2CC2)n1` [Cyromazine], for which the “scaled lipid accumulation score” value runs as follows: under setting [3], inactive: ≤ 0; under setting [2], inactive: 0.311.

As to `Nc1nc(N)nc(NC2CC2)n1`, the “scaled lipid accumulation score” value under setting [2] was inactive: ≤ 0.

On to `CN(C)CCN(C)CCc1ccc(Cl)c(Cl)c1` [BD 1047 dihydrobromide], for which the “scaled lipid accumulation score” value under setting [2] is inactive: 0.679.

Turning to `Cc1ccc(-c2nc3ccc(C)cn3c2CC(=O)N(C)C)cc1` [Zolpidem], under setting [2], the “scaled lipid accumulation score” value is inactive: 0.079.

Regarding `Cc1ccc(-c2nc3ccc(C)cn3c2CC(=O)N(C)C)cc1`, under setting [2], the “scaled lipid accumulation score” value is inactive: ≤ 0.

As to `N=C(N)NN` [Aminoguanidine hemisulfate], under setting [2], the “scaled lipid accumulation score” value is inactive: ≤ 0.

Consider `N=C(N)NN` [Aminoguanidine hydrochloride], for which the “scaled lipid accumulation score” value under setting [2] was inactive: 0.008 and inactive: ≤ 0.

With `N=C(N)NN`, the “scaled lipid accumulation score” value under setting [2] was inactive: ≤ 0.

As for `Clc1ccc(C2CC3CCC2N3)cn1` (stereo unspecified), the “scaled lipid accumulation score” value (library stock concentration: 24 mM) is inactive: ≤ -0.012.

In the case of `C[C@H](N)[C@H](O)c1ccc(O)c(O)c1` [Levonordefrin], the “scaled lipid accumulation score” value was inactive: ≤ 0. Moreover, under setting [2], the “scaled lipid accumulation score” value is inactive: 0.01. In addition, the “scaled lipid accumulation score” value (library stock concentration: 10.9 mM) was inactive: ≤ -0.001.

Take `O=[N+]([O-])/C=C/c1ccc2c(c1)OCO2` [Syk Inhibitor III]: the “scaled lipid accumulation score” value under setting [3] is inactive: 0.609.

For the compound `CC(C)N(CCC(C(N)=O)(c1ccccc1)c1ccccn1)C(C)C` (stereo unspecified) [Disopyramide], the “scaled lipid accumulation score” value was inactive: ≤ 0. Under setting [2], the “scaled lipid accumulation score” value is inactive: ≤ -0.07.

Regarding `CC(C)N(CCC(C(N)=O)(c1ccccc1)c1ccccn1)C(C)C` (stereo unspecified) [Disopyramide phosphate], under setting [2], the “scaled lipid accumulation score” value is inactive: ≤ 0 and inactive: 0.296.
